Test results taken from patent US20150141375A1 (priority 2009, published 2015).

System: adenovirus
Experiment: First fifteen EIND patients: adenovirus
[1] = patient with pre-treatment resistance to cidofovir and CMX001

CCCCCCCCCCCCCCCCOCCCOP(=O)(O)CO[C@H](CO)Cn1ccc(N)nc1=O [CMX001, Hexadecyloxypropyl-cidofovir]
rebound following discontinuation of CMX001 [1]: 3 log | reduction in viremia [1]: ~1.5 log 10 | evaluable patients with >99% (2 log 10) reductions in adenovirus or below the limit of detection (six AdV patients): 5/6
